Patent publication US7517874B2 (priority 2007, dated 2009)
Like-named read-outs stand apart in the source and are kept apart here.

Molecular target: human CB2 receptor (hCB2) (Homo sapiens, UniProt P34972)
Assay: cell-based
Assay type: cell-based
Conditions: for +/− HCB2: agonist or inverse agonist at hCB2
[1] = groups >100 nM-10 μM and >10 μM, cAMP, CHO-K1 hCB2, read-out: EC50 HCB2

Sequence of human CB2 receptor (hCB2) (P34972 whole entry): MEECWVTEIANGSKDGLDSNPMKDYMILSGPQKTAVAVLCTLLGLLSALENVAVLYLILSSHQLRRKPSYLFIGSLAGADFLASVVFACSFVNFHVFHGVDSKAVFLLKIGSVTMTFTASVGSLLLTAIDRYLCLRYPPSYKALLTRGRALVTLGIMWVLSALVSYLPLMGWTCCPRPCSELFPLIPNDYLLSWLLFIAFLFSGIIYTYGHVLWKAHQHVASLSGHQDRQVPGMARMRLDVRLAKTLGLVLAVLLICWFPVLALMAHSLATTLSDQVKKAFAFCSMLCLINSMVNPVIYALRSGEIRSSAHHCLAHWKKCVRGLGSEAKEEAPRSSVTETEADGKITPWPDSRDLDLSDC

SMILES | +/− HCB2 | EC50 | other results
CNC(=O)[C@@H](NC(=O)c1nc(-c2ccc(OC(F)(F)F)cc2)n2c1CN(C)CCC2)C(C)(C)C [Compound 339, (S)-N-(3,3-dimethyl-1-(methylamino)-1-oxobutan-2-yl)-8-methyl-3-(4-(trifluoromethoxy)phenyl)-6,7,8,9-tetrahydro-5H-imidazo[1,5-a][1,4]diazepine-1-carboxamide] | + |  | 
CNC(=O)[C@@H](NC(=O)c1nc(/C=C/COC)n2c1CN(C)CC2)C(C)(C)C [Compound 264, (S,E)-N-(3,3-dimethyl-1-(methylamino)-1-oxobutan-2-yl)-3-(3-methoxyprop-1-enyl)-7-methyl-5,6,7,8-tetrahydroimidazo[1,5-a]pyrazine-1-carboxamide] | + |  | 
CCS(=O)(=O)N1CCCn2c(-c3ccccc3)nc(C(=O)N[C@H](C(=O)NC)C(C)(C)C)c2C1 [Compound 461, (S)-N-(3,3-dimethyl-1-(methylamino)-1-oxobutan-2-yl)-8-(ethylsulfonyl)-3-phenyl-6,7,8,9-tetrahydro-5H-imidazo[1,5-a][1,4]diazepine-1-carboxamide] |  | > 10000 nM | 
CNC(=O)[C@@H](NC(=O)c1nc(-c2c(C)noc2C)n2c1CN(C)CCC2)C(C)(C)C [Compound 442, N-((S)-3,3-dimethyl-1-(methylamino)-1-oxobutan-2-yl)-3-(3,5-dimethylisoxazol-4-yl)-8-methyl-6,7,8,9-tetrahydro-5H-imidazo[1,5-a][1,4]diazepine-1-carboxamide] | + |  | 
CNC(=O)[C@@H](NC(=O)c1nc(-c2cscc2C)n2c1CN(C)CCC2)C(C)(C)C [Compound 352, (S)-N-(3,3-dimethyl-1-(methylamino)-1-oxobutan-2-yl)-8-methyl-3-(4-methylthiophen-3-yl)-6,7,8,9-tetrahydro-5H-imidazo[1,5-a][1,4]diazepine-1-carboxamide] | + |  | 
Cc1nnc([C@@H](NC(=O)c2nc(-c3ccccc3)n3c2CNCC3)C(C)(C)C)o1 [Compound 200, (S)-N-(2,2-dimethyl-1-(5-methyl-1,3,4-oxadiazol-2-yl)propyl)-3-phenyl-5,6,7,8-tetrahydroimidazo[1,5-a]pyrazine-1-carboxamide] | + |  | 
CNC(=O)[C@@H](NC(=O)c1nc(C2=CCCCC2)n2c1CN(C)CC2)C(C)(C)C [Compound 256] | + |  | 
CNC(=O)[C@@H](NC(=O)c1nc(/C=C/CN2CCOCC2)n2c1CN(C)CCC2)C(C)(C)C [Compound 509, (S,E)-N-(3,3-dimethyl-1-(methylamino)-1-oxobutan-2-yl)-8-methyl-3-(3-morpholinoprop-1-enyl)-6,7,8,9-tetrahydro-5H-imidazo[1,5-a][1,4]diazepine-1-carboxamide] |  | > 10000 nM | 
CNC(=O)[C@@H](NC(=O)c1nc(-c2cc(F)ccc2F)n2c1CN(C)CCC2)C(C)(C)C [Compound 359, (S)-3-(2,5-difluorophenyl)-N-(3,3-dimethyl-1-(methylamino)-1-oxobutan-2-yl)-8-methyl-6,7,8,9-tetrahydro-5H-imidazo[1,5-a][1,4]diazepine-1-carboxamide] | + |  | 
CNC(=O)[C@@H](NC(=O)c1nc(-c2cccc(C)c2)n2c1CNCC2)C(C)(C)C [Compound 8, (S)-N-(3,3-dimethyl-1-(methylamino)-1-oxobutan-2-yl)-3-m-tolyl-5,6,7,8-tetrahydroimidazo[1,5-a]pyrazine-1-carboxamide] | + |  | 
CNC(=O)[C@@H](NC(=O)c1nc(-c2ccc(C(=O)N(C)C)c(F)c2)n2c1CN(C)CCC2)C(C)(C)C [Compound 426, (S)-N-(3,3-dimethyl-1-(methylamino)-1-oxobutan-2-yl)-3-(4-(dimethylcarbamoyl)-3-fluorophenyl)-8-methyl-6,7,8,9-tetrahydro-5H-imidazo[1,5-a][1,4]diazepine-1-carboxamide] |  | > 10000 nM | 
CNC(=O)[C@@H](NC(=O)c1nc(-c2cccc(S(=O)(=O)N3CCCC3)c2)n2c1CN(C)CCC2)C(C)(C)C [Compound 385, (S)-N-(3,3-dimethyl-1-(methylamino)-1-oxobutan-2-yl)-8-methyl-3-(3-(pyrrolidin-1-ylsulfonyl)phenyl)-6,7,8,9-tetrahydro-5H-imidazo[1,5-a][1,4]diazepine-1-carboxamide] |  | > 10000 nM | 
C[C@@H](NC(=O)c1nc(-c2ccccc2)n2c1CN(C(=O)C1CC1)CC2)C1CCCCC1 [Compound 132, (R)-N-(1-cyclohexylethyl)-7-(cyclopropanecarbonyl)-3-phenyl-5,6,7,8-tetrahydroimidazo[1,5-a]pyrazine-1-carboxamide] |  | > 10000 nM | 
CNC(=O)c1cccc(NC(=O)c2nc(-c3ccc(Cl)cc3F)n3c2CN(C)CC3)c1 [Compound 216, 3-(4-chloro-2-fluorophenyl)-7-methyl-N-(3-(methylcarbamoyl)phenyl)-5,6,7,8-tetrahydroimidazo[1,5-a]pyrazine-1-carboxamide] |  |  | EC50 [1]: > 10000 nM
CN1CCn2c(-c3ccccc3)nc(C(=O)N[C@H](C(=O)O)C(C)(C)C)c2C1 [Compound 281, (S)-3,3-dimethyl-2-(7-methyl-3-phenyl-5,6,7,8-tetrahydroimidazo[1,5-a]pyrazine-1-carboxamido)butanoic acid] |  | > 10000 nM | 
CNC(=O)[C@@H](NC(=O)c1nc(-c2ccoc2)n2c1CN(C)CCC2)C(C)(C)C [Compound 440, (S)-N-(3,3-dimethyl-1-(methylamino)-1-oxobutan-2-yl)-3-(furan-3-yl)-8-methyl-6,7,8,9-tetrahydro-5H-imidazo[1,5-a][1,4]diazepine-1-carboxamide] | + |  | 
CN1CCn2c(-c3ccccc3)nc(C(=O)N3CCOCC3)c2C1 [Compound 69, (7-methyl-3-phenyl-5,6,7,8-tetrahydroimidazo[1,5-a]pyrazin-1-yl)(morpholino)methanone] |  |  | EC50 [1]: > 10000 nM
CN1CCCn2c(-c3ccccc3)nc(C(=O)N[C@H](C(=O)NCC3CCOCC3)C(C)(C)C)c2C1 [Compound 479, (S)-N-(3,3-dimethyl-1-oxo-1-((tetrahydro-2H-pyran-4-yl)methylamino)butan-2-yl)-8-methyl-3-phenyl-6,7,8,9-tetrahydro-5H-imidazo[1,5-a][1,4]diazepine-1-carboxamide] |  | > 10000 nM | 
CNC(=O)[C@@H](NC(=O)c1nc(Cl)n2c1CN(C)CCC2)C(C)(C)C [Compound 598, (S)-3-chloro-N-(3,3-dimethyl-1-(methylamino)-1-oxobutan-2-yl)-8-methyl-6,7,8,9-tetrahydro-5H-imidazo[1,5-a][1,4]diazepine-1-carboxamide] | + |  | 
CNC(=O)[C@H](CC(C)C)NC(=O)c1nc(-c2cc(F)ccc2F)n2c1CN(C)CCC2 [Compound 532, (S)-3-(2,5-difluorophenyl)-8-methyl-N-(4-methyl-1-(methylamino)-1-oxopentan-2-yl)-6,7,8,9-tetrahydro-5H-imidazo[1,5-a][1,4]diazepine-1-carboxamide] | + |  | 
CNC(=O)[C@@H](NC(=O)c1nc(-c2ccccc2)n2c1CN(Cc1nccs1)CC2)C(C)(C)C [Compound 72, (S)-N-(3,3-dimethyl-1-(methylamino)-1-oxobutan-2-yl)-3-phenyl-7-(thiazol-2-ylmethyl)-5,6,7,8-tetrahydroimidazo[1,5-a]pyrazine-1-carboxamide] | + |  | 
CNC(=O)[C@@H](NC(=O)c1nc(-c2ccco2)n2c1CNCC2)C(C)(C)C [Compound 15, (S)-N-(3,3-dimethyl-1-(methylamino)-1-oxobutan-2-yl)-3-(furan-2-yl)-5,6,7,8-tetrahydroimidazo[1,5-a]pyrazine-1-carboxamide] | + |  | 
